For eleven compounds, ALDHbr results are on record in the supplement of paper PMC11880418.

Where a name gives a salt, the structure may show the parent alone. This is one part of the list. The data scatter; read single values as rough.

Among the test systems are MKN45; PANC1; SUM159; T84.
Assay in all cases: ALDHbr (CSC) cell proportion score relative to DMSO vehicle (ratio to DMSO); breast (SUM159) / gastric (MKN45) / pancreatic (PANC1) / colon cancer lines; ALDHbr cells have high ALDH activity and are rich in cancer stem cells (CSC); higher = more CSC (ALDHbr) cells remaining
What all share (details): 10 µM; 72 h
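Note: High-content imaging of ALDEFLUOR-stained cells with Hoechst-labelled nuclei in 384-well plates, triplicate wells, scored as Z-score against 0.1% DMSO vehicle, negative meaning fewer ALDHbr cells.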

As for `CC(C)COCC(CN(Cc1ccccc1)c1ccccc1)N1CCCC1` (centres undefined) [Bepridil hydrochloride], the ALDHbr with MKN45 came out at 0.521; in the assay with PANC1, 0.94; in the assay with SUM159, 0.515; in the assay with T84, 0.582.

As to `CN(C)CCc1c[nH]c2ccc(C[C@H]3COC(=O)N3)cc12` [Zolmitriptan], the ALDHbr with MKN45 is 1.02; in the assay with PANC1, 0.916; with SUM159 it was 1.21; with T84 it was 0.966.

Turning to `O=C(O)Cc1ccccc1Nc1c(Cl)cccc1Cl` [Diclofenac sodium], the ALDHbr with MKN45 worked out at 0.99; in the assay with PANC1, 1.04; with SUM159, 0.97; in the assay on T84, 0.914.

Turning to `C[N+]1(CCCCC[N+]2(C)CCCC2)CCCC1` [Pentolinium bitartrate], the ALDHbr in the assay with MKN45 was 1.01; in the assay on PANC1 it was 0.903; with SUM159, 0.893; with T84, 1.

As to `COc1nc(C)nc(Cl)c1NC1=NCCN1` [Moxonidine], the ALDHbr in the assay with MKN45 came out at 1.07; in the assay with PANC1, 0.937; in the assay on SUM159, 0.971; in the assay with T84, 1.02.

Take `C1N2CN3CN1CN(C2)C3` [Methenamine]: the ALDHbr was determined as 1.08 with MKN45, 0.929 with PANC1, 0.958 with SUM159 and 1.07 with T84.

On to `CC=CC1=C(C(=O)O)N2C(=O)[C@@H](NC(=O)[C@H](N)c3ccc(O)cc3)[C@H]2SC1` [Cefprozil], for which the ALDHbr in the assay with MKN45 was 1.01; in the assay on PANC1 it was 0.924; with SUM159 it was 0.941; in the assay with T84 it was 0.868.

On to `COc1cc(C(=O)N2CCOCC2)cc(OC)c1OC` [Trimetozine], for which the ALDHbr in the assay on MKN45 came to 1.06; with PANC1 it was 0.961; in the assay on SUM159, 0.963; in the assay on T84, 1.09.

In the case of `C[C@]12CC[C@@H]3c4ccc(O)cc4CC[C@H]3[C@@H]1CCC2=O` [Estrone], the ALDHbr with MKN45 is 0.967; in the assay with PANC1, 0.673; with SUM159 it was 0.949; in the assay with T84 it was 0.843.

Regarding `N#CC(c1ccc(Cl)cc1)c1c(Cl)cc(-n2ncc(=O)[nH]c2=O)cc1Cl` (centres undefined) [Diclazuril], the ALDHbr came out at 0.393 in the assay on MKN45, 0.831 in the assay with PANC1, 1.42 in the assay with SUM159 and 1.1 with T84.

For `Cn1c(=O)c2[nH]cnc2n(C)c1=O` [Aminophylline], the ALDHbr in the assay on MKN45 was 0.864; in the assay on PANC1, 0.936; with SUM159, 1.22; in the assay on T84 it was 0.828.
